Where “and” joins values, the source holds several entries; their conditions need not be identical. Equal values may be shown once.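 Five compound concentrations were applied to cells in 96-well plates for 48 hours; endpoints were derived by simple linear interpolation of the resulting dose-response curve. GI50: concentration for 50% inhibition of growth. TGI is the concentration that stops growth completely.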
test system: NCI-H322M lung; assay: NCI tumour cell line growth inhibition, 48 h

Row | SMILES | TGI [µM] | GI50
1 | C=C1CC[C@@H]2C(C)(C)CCC[C@@]2(C)[C@@H]1Cc1cc(O)ccc1O | 30.3 | –
2 | Nc1nc(SCc2ccccc2)c2ncn(Cc3ccccc3)c2n1 | > 100 | –
3 | C[N+](C)(CCCCCC[N+](C)(C)CCCN1C(=O)c2cc3ccccc3cc2C1=O)CCCN1C(=O)c2ccccc2C1=O | > 37.5 | > 37.5 µM
4 | CN(C)CCO/N=C1/C=C2CC[C@H]3[C@@H]4CC[C@H](O)[C@@]4(C)CC[C@@H]3[C@@]2(C)CC1 | 48.3 | –
5 | Cc1[nH]c(/C=C2\C(=O)Nc3ccc(F)cc32)c(C)c1C(=O)NC[C@H](O)CN1CCOCC1 | > 10 | 3.05 µM
6 | O=S1(=O)C[C@@H](O)[C@H](O)CS1 | > 100 | –
7 | CC(=O)O[C@H]1C(=O)[C@@]2(C)[C@H]([C@H](OC(=O)C3CCCCC3)[C@]3(O)C[C@H](OC(=O)[C@H](O)[C@@H](NC(=O)C4CCCCC4)C4CCCCC4)C(C)=C1C3(C)C)[C@]1(OC(C)=O)CO[C@@H]1C[C@@H]2O | 0.74 | –
8 | CC(=O)c1ccc2c(c1)oc(=O)n2CCN1CCCCC1 | > 100 | –
9 | COC(=O)CC1C(=O)OCc2c1cc1n(c2=O)Cc2c-1nc1ccccc1c2OC (stereo not given) | > 100 | –
10 | O=C1CCC2(C=C(Br)C(=O)C(Br)=C2)O1 | 32.7 | 17.2 µM
11 | CCOP(=O)(OCC)/C(C#N)=C/c1ccco1 | > 100 | –
12 | N#C/C=C1\C=CC(O)C(O)C1OC1OC(CO)C(O)C(O)C1O (stereo not given) | > 100 | –
13 | Cc1cc2c(F)c(Oc3ncnn4cc(OC[C@@H](C)OC(=O)[C@H](C)N)c(C)c34)ccc2[nH]1 | 26.6 | 13.2 µM
14 | CCCNC(=S)/N=C\c1c(O)c2ccccc2oc1=O | > 100 | –
15 | O=C1N=C(c2ccccc2)O/C1=C\c1ccccc1 | > 100 | –
16 | C[N+]1(C)CCC(C#N)(c2ccccc2)CC1 | > 100 | –
17 | Cc1cc(C)nc(Nc2nc3ccc([N+](=O)[O-])cc3[nH]2)n1 | > 100 | –
18 | Fc1ccc(-c2ccc(-c3nnc(-c4cc(F)c(Cl)cc4Cl)o3)o2)cc1Cl | > 100 | 30.9 µM
19 | O=C1C=Cc2ccccc2/C1=C/c1[nH]c(=O)[nH]c1O | 44.2 | 11.1 µM
20 | CCOC(=O)c1c(NC(=O)Nc2ccccc2)c(C(N)=O)c2n1CCCCC2 | > 100 | –
21 | O=C(Cc1ccccc1)c1ccc2[nH]c(=O)oc2c1 | > 100 | –
22 | COc1nc(C)cc2c(=O)n(-c3ccccc3)n(CCCN3CCN(c4ccc(Cl)cc4)CC3)c(=O)c12 | > 50 | > 50 µM
23 | CN(c1ccccc1)C(c1ccccc1)C(O)c1ccccc1 (stereo not given) | 35.7 | –
24 | O=C(NOCC1CC1)c1ccc(F)c(F)c1Nc1ccc(I)cc1Cl | 10.7 | 0.875 µM
25 | COc1ccc2[nH]c(Cl)c(/C=C3/C(=O)N(C)c4ccccc43)c2c1 | > 100 | 53.4 µM

Row | SMILES | TGI [µM] | GI50
26 | CC(O)C(O)C(N)CC=O (stereo not given) | > 500 | –
27 | CC(NNC(=S)N1CCCCCC1)c1ccc2ccccc2n1 (stereo not given) | > 54.1 | 1.46 µM
28 | CC1(C)OCC(CO)(Nc2nc(N3CC3)nc(N3CC3)n2)CO1 | 76.5 | –
29 | c1ccc(CCN(Cc2nc3ccccc3[nH]2)Cc2nc3ccccc3[nH]2)cc1 | 49 | –
30 | COC1OC(CO)C(O)C(OC(=O)c2cc(O)c(O)c(O)c2)C1OC(=O)c1cc(O)c(O)c(O)c1 (stereo not given) | > 100 | –
31 | COC(=O)N/N=C/c1oc(-c2cccc([N+](=O)[O-])c2)c(-c2cccc([N+](=O)[O-])c2)c1[N+](=O)[O-] | > 100 | –
32 | O=c1cc(-c2ccccc2)nc2n1CCN2Cc1ccccc1 | > 100 | 39.8 µM
33 | CN(C)CCCNC(=O)c1cc(NC(=O)c2cc(NC(=O)c3cc(NC(=O)CCc4c[nH]c5ccccc45)cn3C)cn2C)cn1C | > 100 | 31.1 µM
34 | S=C(N/N=C/c1ccccn1)Nc1ccccn1 | > 100 | 1.68 µM
35 | CCN(CC)CCS(=O)c1c2cc(OC)ccc2nc2ccc(OC)cc12 (stereo not given) | 32.9 | –
36 | COC(=N)C12C(N)=NC(OC)(OC)C1(C#N)C21C(=O)N(c2ccccc2)N=C1C (stereo not given) | > 100 | –
37 | N.N.NC(CS)C(=O)[O-].NC(CS)C(=O)[O-].[Pt+4] (stereo not given) | > 50 | > 50 µM
38 | O=C(O)C1CC(c2ccccc2)=NN1c1ccccc1 (stereo not given) | > 100 | –
39 | CS(=O)c1ccc(COP(N)(=O)N(CCCl)CCCl)cc1 (stereo not given) | > 100 | –
40 | CC(c1cccc2ccccc12)/[N+]([O-])=C/c1ccccc1 (stereo not given) | > 100 | –
41 | CC1NC(/C(=C/c2ccccc2O)NC(=O)c2ccccc2)OC1=O (stereo not given) | > 50 | –
42 | O=c1c2cccnc2nc2ccc3c[nH][nH]c3c12 | > 10 | –
43 | CCC1(N=[N+]=[N-])C(=O)Nc2cc(C)ccc2C1=O (stereo not given) | > 100 | –
44 | COc1ccc2ccc([Se]c3ccc4ccc(OC)cc4c3)cc2c1 | > 100 | –
45 | CC1N(C)C(=O)OC12CCN(CCCC(=O)c1ccc(F)cc1)CC2 (stereo not given) | > 100 | –
46 | O=c1cc(-c2cccc(OC(F)(F)F)c2)[nH]c2cc3c(cc12)OCO3 | > 100 | –
47 | CC1(C)COC(/C=C/C2=NC(C)(C)CO2)=N1 | 91.8 | –
48 | O=C1/C(=C\c2cccc(Oc3ccccc3)c2)SC(c2ccccc2)N1c1ccc(Cl)cc1 (stereo not given) | > 100 | –
49 | Cc1ccc(S(=O)(=O)NNC(=S)Nc2cccc3ccccc23)cc1 | > 100 | –
50 | COc1cc2[nH]c(-c3cccc(N(C)C)c3)cc(=O)c2cc1OC | > 100 | –

Row | SMILES | TGI [µM] | GI50
51 | O=C1/C(=C\c2ccc(-c3ccc(Cl)cc3Cl)o2)SC2N=C(COc3ccc(Cl)cc3)NN12 (stereo not given) | > 100 | –
52 | CC(=O)OC1COC(n2c(N)c(C#N)c(C)c(C#N)c2=S)C(OC(C)=O)C1OC(C)=O (stereo not given) | > 100 | –
53 | CC(=O)OCC1OC(O[C@@H]2c3c(O)c4c(c(O)c3C3=C(NN(c5ccc([N+](=O)[O-])cc5[N+](=O)[O-])[Se]3=O)[C@@]2(C)O)C(=O)c2ccccc2C4=O)C(OC(C)=O)C(OC(C)=O)C1OC(C)=O (stereo not given in full) | 1.36 | –
54 | NC1=NC(OCC2(CO)CCC2)C=C(NCC2(CO)CCC2)N1 (stereo not given) | > 100 | –
55 | O=S(=O)(c1ccc(I)cc1)N(c1ccccc1)S(=O)(=O)C(F)(F)C(F)(F)C(F)(F)C(F)(F)F | 66.1 | –
56 | CCOC(CN=c1nc(N(C)C)ss1)OCC | > 100 | –
57 | c1ccc(N=C2c3ccccc3C3=NCCCN32)cc1 | > 100 | –
58 | CC1(C)C(=O)N=C(N)N1C(=O)OCc1ccccc1 | > 100 | –
59 | CC(=O)/C=C/c1ccc(C2CC(C)=Nc3c(ccc4c3C(=O)c3ccccc3C4=O)N2)cc1 (stereo not given) | > 76.7 | –
60 | CC1C[C@]2(C)C(=S)Nc3ccccc3[C@@H]2Nc2ccccc21 (stereo not given in full) | 38.2 | –
61 | O=C1CCCc2cc3c(cc21)CCC3C(=O)O (stereo not given) | > 100 | –
62 | S=C(Nc1cccc(Cl)c1)Nc1ccccn1 | > 100 | –
63 | NC1CC(=O)c2cc(Br)sc21 (stereo not given) | > 100 | –
64 | CNC(=O)c1cccc(-c2ccc3c(N4CCOC[C@@H]4C)nc(N4CCOC[C@@H]4C)nc3n2)c1 | – | 0.0941 µM and 0.152 µM and 0.101 µM
65 | CC(C)(O)C1OCC(C2CCC3(C)C4=CCC5C(C)(C)C(O)CCC5(C)C4CCC23C)CC1O (stereo not given) | 30.1 | –
66 | CN(C)Cc1ccc(C(=O)Nc2ccc3ncnc(Nc4ccc(Oc5cccc(F)c5)c(Cl)c4)c3c2)cc1 | 2.71 | 1.38 µM
67 | CNC(=O)c1n[nH][nH]c1=O | > 100 | –
68 | N=C(N)CCCCCCCCC(=N)N | > 100 | 35.3 µM
69 | COC(=O)c1ccc(N=NN(C)CO)cc1 | > 100 | –
70 | O=[N+]([O-])c1cccc2nccc(NCC(O)CO)c12 (stereo not given) | 40.8 | –
71 | COc1ccc(/C=C\c2cc(OC)c(OC)c(OC)c2)cc1OCC(=O)Nc1nc2ccc(C(F)(F)F)cc2s1 | > 100 | 5.38 µM
72 | COC(=O)C1=C(O)C(O)=C(C(=O)OC)C1 | > 100 | –
73 | C=C[C@@]1(C)CC(=O)[C@]2(O)[C@@]3(C)[C@@H](OC(C)=O)CCC(C)(C)[C@@H]3[C@H](OC(C)=O)[C@H](OC(C)=O)[C@@]2(C)O1 | > 100 | –
74 | O=S1(=O)CCN(Cc2ccccc2)/C1=N\S(=O)(=O)c1ccc(Cl)cc1 | > 100 | –
75 | CN(C)CCNc1ccc2c(=O)n(CCN(C)C)c(=O)n3c4ccc(N)cc4c(=O)c1c23 | 0.295 | –

Row | SMILES | TGI [µM] | GI50
76 | O=[N+]([O-])C1C2C=CC(C2)[C@H]1c1ccccc1Cl (stereo not given in full) | > 100 | –
77 | CC(=O)Nc1ccc2c(C)c3c4ccccc4n(C)c3nc2n1 | > 100 | –
78 | S=C(Nc1ccc(Cl)cc1)Nc1ccc(Cl)cc1 (tested in a mixture with another compound) | > 100 | 3.17 µM
79 | CCN(CC)CCOc1ccc(/C=C2\CC3C4CC=C5C[C@@H](N6CCCC6)CC[C@]5(C)C4CC[C@]3(C)[C@H]2O)cc1OC (stereo not given in full) | 39.8 | 10.6 µM
80 | O=C(Oc1ccc(CCl)cc1)c1ccccc1 | 1.42 | 0.392 µM
81 | CN(C)c1ccc2c3c(c(=O)oc2c1)CCC3 | > 100 | –
82 | Cc1nc2cccc(NCc3ccc(C(=O)NO)cc3)c2c(=O)n1-c1ccccc1 | 13 | 2.73 µM
83 | Cc1ccc(S(=O)(=O)N2CCCCN(S(=O)(=O)c3ccc(C)cc3)Cc3ccccc3OCCOCCOc3c4cccc3Cc3cccc5c3OCCOCCOc3ccccc3CN(S(=O)(=O)c3ccc(C)cc3)CCCN(S(=O)(=O)c3ccc(C)cc3)Cc3ccccc3OCCOCCOc3c(cccc3C4)Cc3cccc(c3OCCOCCOc3ccccc3C2)C5)cc1 | > 100 | –
84 | COC(=O)Nc1nc2ccccc2c(=O)[nH]1 | > 100 | –
85 | COC(=O)C1=CC[C@@H]2C(C(=O)O)=CO[C@@H](OC3OC(CO)C(O)C(O)C3O)[C@H]12 (stereo not given in full) | > 171 | –
86 | Nc1ccccc1C#C/C=C\C#Cc1ccc(Cl)cc1Cl | 28.9 | 10.4 µM
87 | CC1(C)OCC(C2OC(N3O[C@H](CI)C[C@@H]3c3ccccc3)C3OC(C)(C)OC23)O1 (stereo not given in full) | > 100 | –
88 | CCOC(=O)c1ccc(C(=O)/C(C#N)=C2\CCCN2)[nH]1 | > 100 | –
89 | C[Si](C)(C)OC1c2[nH]c3ccccc3c2CN2C(=O)CCC12 (stereo not given) | > 100 | –
90 | CC1NOC(=O)C1N=Nc1ccccc1Cl (stereo not given) | > 100 | –
91 | Cc1ccccc1N(C)S(=O)(=O)c1ccccc1[N+](=O)[O-] | > 100 | –
92 | O=C1c2ccccc2-c2ccc(N=[N+]([O-])c3ccc4c(c3)C(=O)c3ccccc3-4)cc21 | > 100 | –
93 | COc1cc(-c2coc3c(OC)c(OC4OC(CO)C(O)C(O)C4O)c(OC)cc3c2=O)cc(OC)c1C (stereo not given) | 28.8 | –
94 | O=C1C(=O)N(c2ccc(Cl)c(Cl)c2)C(=O)C(=O)C1c1nc2ccccc2o1 | > 100 | –
95 | CC(C)CC1c2[nH]c3ccccc3c2C[C@H]2C(=O)NC(CCC(=O)OC(C)(C)C)C(=O)N12 (stereo not given in full) | > 100 | –
96 | C[C@]12CC(c3ccccc3O1)C(C(=O)NC13CC4CC(CC(C4)C1)C3)C(=O)N2 (stereo not given in full) | 45.5 | –
97 | OC1CC(O)c2c(Cl)sc(Cl)c21 (stereo not given) | > 100 | –
98 | C=C[C@H]1CN2CCc3c([nH]c4c([C@H]5CCCN5C)c(O)ccc34)[C@@H]2C[C@@H]1C[C@H]1c2[nH]c3ccccc3c2CCN1C | 3.02 | –

Reference: PubChem BioAssay (NCI)
